# In PubChem BioAssay (Tox21):
# The inconclusive results got no clear call from the source; some entries with a clear call stand among them for comparison. No potency is given beside an inconclusive call; the fits are too rough. The source made the active and inactive calls. Calls come from the whole dose curve; as a rule, active = well fitted cell-killing curve with a large enough effect in the repeat runs; inconclusive = weak or mixed curves; inactive = flat fitted curve, though single readings scatter.
# Assay: qHTS assay to identify small molecule antagonists of the estrogen related receptor (ERR) signaling pathway - cell viability counter screen (AID 1224818)
# Conditions: ERR reporter cell line viability counter screen; series mostly up to 46.1 µM
# Source text: National Center for Advancing Translational Sciences [NCATS]
# NIH Chemical Genomics Center [NCGC]
# U.S. Environmental Protection Agency [EPA]
# National Institutes of Environmental Health Sciences [NIEHS]
# National Toxicology Program [NTP]
# U.S. Food and Drug Administration [FDA]
# Estrogen related receptors (ERRs), the first orphan nuclear receptors discovered, play an important role in the control of cellular energy metabolism. ERRs are required for high-energy production in response to the environmental challenges. ERR-alpha was also identified as an adverse marker for breast cancer progression; ERR-alpha-positive tumors have a poor prognosis. To screen and to identify environmental compounds that perturb the ERR signaling pathways could provide valuable information for potential therapeutic or preventive measures in the treatment of metabolic disease. To differentiate true ERR antagonists or agonist from cytotoxic substances, the assay is multiplexed with cell viability assay.
# Tox21 Assay Protocol Summary:
# The ERR cells were dispensed at 2,000 cells/5 ul/well in 1536-well white plates using a Multidrop dispenser. After the assay plates were incubated at a 37 C/5% CO2 incubator for 6 hours, 23 nL of compounds dissolved in DMSO, positive and negative controls or DMSO only was transferred to the assay plate by a pin tool. The plates were incubated at 37 C for 17.5 hours. 1 ul/well of CellTiter-Fluor reagent was added into the assay plates using a Flying Reagent Dispenser. After 30 min incubation at 37 C/5% CO2, the fluorescence intensity in the plates was measured using a ViewLux plate reader.
# Potency is the fitted concentration of half-maximal effect; tags give direction and shape of the fitted curve.
row,Structure (SMILES),Potency
1,O=C(O)c1cc([N+](=O)[O-])ccc1NCCCc1ccccc1,"inconclusive [cytotoxic, partial curve]"
2,Cc1ccc(S(=O)(=O)/C=C/C#N)cc1,"inconclusive [cytotoxic, partial curve, poor fit]"
3,CC(C)N(CCC(=O)c1ccc2ccccc2c1)Cc1ccccc1,"inconclusive [cytotoxic, partial curve, poor fit]"
4,OCC1O[C@H]([S-])C(O)[C@@H](O)[C@@H]1O.[Au+] (stereo not given in full),"inconclusive [cytotoxic, partial curve, poor fit]"
5,N#C/C(=C\c1ccc(-c2cc(Cl)ccc2Cl)o1)C(=O)Nc1cccc2ncccc12,"inconclusive [cytotoxic, partial curve, poor fit]"
6,COc1ccc(CCN(C)CCCC(C#N)(c2ccc(OC)c(OC)c2)C(C)C)cc1OC (stereo not given),inactive
7,C=CCN1CCc2c(cc(O)c(O)c2Cl)C(c2ccccc2)C1 (stereo not given),inconclusive [cytotoxic]
8,Cn1c(=O)c2c(nc(/C=C/c3cccc(Cl)c3)n2C)n(C)c1=O,inactive
9,Oc1cc2c(cc1O)CN(C(=S)NCCc1ccc(Cl)cc1)CCC2,inconclusive [cytotoxic]
10,CN1CCCC1CCOC(C)(c1ccccc1)c1ccc(Cl)cc1 (stereo not given),"inconclusive [cytotoxic, partial curve, poor fit]"
11,COc1ccc(C2CNC(=O)C2)cc1OC1CCCC1 (stereo not given),inactive
12,CCCCOC(=O)NS(=O)(=O)c1sc(CC(C)C)cc1-c1ccc(Cn2c(CC)nc3c(C)cc(C)nc32)cc1,inconclusive [cytotoxic]
13,COc1cc(OC)cc(-c2cc3cnc(N)nc3nc2NC(=O)NC(C)(C)C)c1,inconclusive [cytotoxic]
14,O=C(/C=C/c1ccc(O)c(O)c1)OCCc1ccccc1,inconclusive [cytotoxic]
15,Oc1cc2c(c(Cl)c1O)CCNCC2c1ccccc1 (stereo not given),"inconclusive [cytotoxic, partial curve, poor fit]"
16,Brc1c(Br)c(Br)c2[nH]cnc2c1Br,inactive
17,COc1ccc(CCn2nnnc2C2(c3ccc(C)cc3)CC2)cc1,inactive
18,COc1cc(OC)c(/C=C2/C(=O)Nc3ccccc32)c(OC)c1,active: 11 µM
19,C=CCN1CCc2c(cc(O)c(O)c2Br)[C@@H](c2ccccc2)C1,"inconclusive [cytotoxic, single point]"
20,Nc1c(S(=O)(=O)O)cc(Nc2ccc(Nc3nc(Cl)nc(Nc4ccc(S(=O)(=O)O)cc4)n3)c(S(=O)(=O)O)c2)c2c1C(=O)c1ccccc1C2=O,inconclusive [cytotoxic]

row,Structure (SMILES),Potency
1,Cc1cccc(C2CN(C)CCc3c2cc(O)c(O)c3Cl)c1 (stereo not given),inconclusive [cytotoxic]
2,Nc1ccc2c3c(cccc13)C(=O)NC2=O,"inconclusive [rising, partial curve, poor fit]"
3,O=C1CN(/N=C/c2ccc(-c3ccc([N+](=O)[O-])cc3)o2)C(=O)N1,inconclusive [cytotoxic]
4,NC[C@@H]1O[C@H](C23CC4CC(CC(C4)C2)C3)Cc2c1ccc(O)c2O,inconclusive [cytotoxic]
5,CSc1ccccc1N1CCN(CCCCCC(=O)NC2CCCc3ccccc32)CC1 (stereo not given),active: 10.2 µM
6,Cc1ccc(S(=O)(=O)N[C@@H](Cc2ccccc2)C(=O)CCl)cc1,inconclusive [cytotoxic]
7,Nc1ncnc2c1c(-c1ccc(Oc3ccccc3)cc1)cn2C1CCCC1,inconclusive [cytotoxic]
8,NS(=O)(=O)C#Cc1ccccc1,inconclusive [cytotoxic]
9,CCc1ccc(/C=C2/SC(=S)NC2=O)cc1,inconclusive [cytotoxic]
10,COc1cccc(C(=O)NCCN2CCN(c3ccc(Cl)cc3)CC2)c1,inactive
11,N#C/C(=C\c1ccc(O)c(O)c1)C(=O)Nc1ccccc1,inconclusive [cytotoxic]
12,O=C(c1cc(O)c(O)c([N+](=O)[O-])c1)c1ccccc1F,inactive
13,CNC(=O)[C@H]1O[C@@H](n2cnc3c(NCc4ccc(I)cc4)nc(Cl)nc32)[C@H](O)[C@@H]1O,inconclusive [cytotoxic]
14,CNCCC=C1c2ccccc2CCc2ccccc21,inactive
15,O=Nc1c(-c2c(O)[nH]c3ccccc23)[nH]c2ccccc12,inconclusive [cytotoxic]
16,CC(C)NCC(O)COc1ccc(CCOCC2CC2)cc1 (stereo not given),inactive
17,CCOC(=O)C1=C(C)NC(C)=C(C(=O)OCC)C1c1c(F)c(F)c(F)c(F)c1F,inconclusive [cytotoxic]
18,CCCCCCCCCCC(C)(C)C(=O)Nc1c(OC)cc(OC)cc1OC,"inconclusive [cytotoxic, single point]"
19,CCN(CC)CCOc1ccc(Nc2ncc3cc(-c4c(Cl)cccc4Cl)c(=O)n(C)c3n2)cc1,inconclusive [cytotoxic]
20,CCOC(=O)N1CCN(/[N+]([O-])=N/Oc2ccc([N+](=O)[O-])cc2[N+](=O)[O-])CC1,inconclusive [cytotoxic]
